Experimental data as given in patent US20220411372A1, “SMALL-MOLECULE INHIBITORS FOR THE B-CATENIN/B-CELL LYMPHOMA 9 PROTEIN-PROTEIN INTERACTION” (H. Lee Moffitt Cancer Center and Research Institute, Inc., priority 2019, published 2022).

How the values were obtained:
Axin2 and cyclin D1 = experiment: Western blot of Axin2 and cyclin D1 protein expression; details: SW480 cells; β-tubulin internal control not affected; FIG. 2B
[1] = test system: FOPFlash reporter (three mutant Tcf binding sites); experiment: FOPFlash luciferase reporter assay; type: cell-based, human; details: 25 μM; all three cell lines (HEK293, SW480, MDA-MB-468)
From the text: Inhibition of β-Catenin/BCL9/Tcf Transcriptional Activity. […] For the TOPFlash reporter construct, the firefly luciferase reporter gene was placed downstream of three wild-type Tcf binding sites. For the FOPFlash reporter construct, the firefly luciferase reporter gene was place downstream of three mutant Tcf binding sites. The high expression of firefly luciferase in TOPFlash assays was controlled by tandem Tcf binding sites. The renilla luciferase reporter construct (pCMV-RL) was used as the internal control to normalize luciferase reporter signals and eliminate systematic errors such as cell viability, transfection effect, etc.
Cell Transfection and Luciferase Assay. FuGENE6 (E269A, Promega) 96 well plate format was used for the transfection of HEK293 and SW480 cells according to the manufacturer's instruction. […] SW480 cells were co-transfected with 60 ng the TOPFlash or FOPFlash firefly luciferase reporter gene and 40 ng renilla luciferase pCMV-RL normalization reporter. Cells were cultured in DMEM and 10% FBS at 37° C. for 24 h, and different concentrations of inhibitors or DMSO was added. After 24 h, the luciferase reporter activity was measured using the Dual-Glo system (E2940, Promega). Normalized luciferase activity in response to the treatment with inhibitors was compared with that obtained from the cells treated with DMSO. Experiments were performed in triplicate.

[2] = test system: Wnt/β-catenin target genes Axin2, cyclin D1 and LEF1; experiment: Quantitative real-time PCR of Wnt/β-catenin target genes; type: cell-based, human; details: SW480 cells
Description: Inhibition of Expression of Wnt/β-Catenin Target Genes.
Quantitative Real Time PCR analysis. SW480 cells at 1×10^6/mL were treated with inhibitors at different concentrations for 24 h. […] The threshold cycle (CT) values were normalized to that of internal reference GAPDH. Experiments were performed in triplicate. The primer pairs are shown below

TNBC MDA-MB-231 cells = experiment: Matrigel invasion assay; type: cell-based, human; details: 20 μM, FIG. 3B
Description: Control, 0.2% DMSO in 10% FBS. Mitomycin (10 μg/mL) was added to inhibit cell proliferation and allow examination of the effects on cell migration. […] Each experiment was performed in duplicate.
Scratch wound healing and Matrigel invasion assays using TNBC MDA-MB-231 cells were conducted.

Structure (SMILES): CC(C)(Oc1cccc(N2CCC[C@@H](C(=O)N(Cc3ccc(-c4cn[nH]c4)cc3)C3CC3)C2)c1)C(=O)N1CCNCC1.Cl [Compound 37, (R)-4-(2-(3-(3-((4-(1H-pyrazol-4-yl)benzyl)(cyclopropyl)carbamoyl)piperidin-1-yl)phenoxy)-2-methylpropanoyl)piperazin-1-ium chloride]
- protein expression levels of Axin2 and cyclin D1 (Axin2 and cyclin D1): significantly decreased in a dose-dependent manner
- inhibitory activity in FOPFlash assay [1]: did not show obvious inhibitory activity
- Axin2 transcripts, % of the DMSO-treated control ([2]; 20 μM, 24 h): 36%
- LEF1 transcripts, % of the DMSO-treated control ([2]; 20 μM, 24 h): 54%
- cyclin D1 transcripts, % of the DMSO-treated control ([2]; 20 μM, 24 h): 43%
- transcription of Wnt target genes (qPCR) ([2]; house-keeper gene HPRT not affected, FIG. 2A): dose-dependently inhibited transcription of all these Wnt target genes
- TNBC cell invasion (TNBC MDA-MB-231 cells): inhibited invasion
- TNBC cell invasion, % of the DMSO-treated control (TNBC MDA-MB-231 cells): 13%
